Here are results for two molecules from US20230124669A1 (ADAGENE, published 2023).

In assay [1] the target is T1, Human CD137 (SPR analyte) (human, UniProt Q07011 24-186, limits assumed).
T1 construct: also called CD137H
The assay is described as follows: SPR (Biacore T200), antibody captured by anti-human IgG on CM5 chip, antigen injected as analyte, 1:1 Langmuir fit. The method, then: (§1) Biacore T200 (GE Healthcare) was used as a high performance system for real-time biomolecular interaction analysis, using surface plasmon resonance technology (“SPR”). During the measurement, anti-human IgG monoclonal antibody from the Human Antibody Capture Kit provided by Biacore was immobilized on CM5 chips, and IgG sample was injected onto sensor chip. Analytes were injected onto IgG captured flow cell for binding kinetic analysis in HBS-EP buffer.

Assay [2] concerns the target T2, Human PDL1 (SPR analyte) (human, UniProt Q9NZQ7 partial chain, limits assumed).
T2 construct: also called PDL1H
T2 sequence (Q9NZQ7 19-238 limits assumed): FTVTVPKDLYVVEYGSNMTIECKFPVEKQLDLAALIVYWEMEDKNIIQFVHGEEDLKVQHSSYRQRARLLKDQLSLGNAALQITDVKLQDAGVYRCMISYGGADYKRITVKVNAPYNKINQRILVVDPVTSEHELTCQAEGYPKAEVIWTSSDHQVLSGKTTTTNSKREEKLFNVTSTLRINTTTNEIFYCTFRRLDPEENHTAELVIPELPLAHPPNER
The description is as above. The protocol: as §1

B1: TY22122 (bispecific antibody, human IgG1, kappa)
heavy: DIQLTQSPSSLSASVGDRVTITCRASQSIGSYLAWYQQKPGKAPKLLIYDASNLETGVPSRFSGSGSGTDFTLTISSLQPEDFATYYCQQGYYLWTFGQGTKVEIKRTVAAPSVFIFPPSDEQLKSGTASVVCLLNNFYPREAKVQWKVDNALQSGNSQESVTEQDSKDSTYSLSSTLTLSKADYEKHKVYACEVTHQGLSSPVTKSFNRGEC
light: EVQLVESGGGLVQPGGSLRLSCAASGFSLSTGGVGVGWIRQAPGKGLEWLALIDWADDKYYSPSLKSRLTISRDNSKNTLYLQLNSLRAEDTAVYYCARGGSDTVIGDWFAYWGQGTLVTVSSASTKGPSVFPLAPSSKSTSGGTAALGCLVKDYFPEPVTVSWNSGALTSGVHTFPAVLQSSGLYSLSSVVTVPSSSLGTQTYICNVNHKPSNTKVDKRV[human IgG1 Fc not listed]GGGSEVQLVESGGGLVQPGGSLRLSCAASGYSISSGYYWGWIRQAPGKCLEWIGIIYPSGGGTNYAQKFQGRVTISRDNSKNTLYLQLNSLRAEDTAVYYCARGGGLGFDYWGQGTLVTVSSGGGGSGGGGSGGGGSGGGGSDIQLTQSPSSLSASVGDRVTITCRASQSIPSFLNWYQQKPGKAPKLLIYAASSLQSGVPSRFSGSGSGTDFTLTISSLQPEDFATYYCQHYISWPRQFTFGCGTKVEIKR
notes: Morrison format: anti-CD137 Fab, anti-PDL1 scFv at the C-terminus of the Fc; IgG1; also called CD137 × PDL1 bispecific antibody, format TYF01
Regarding B1, the Kd amounted to 0.0038 µM in assay [1] and 0.0297 µM in assay [2].

B2: TY22149 (bispecific antibody, human IgG1, kappa)
heavy: DIQLTQSPSSLSASVGDRVTITCRASQSIGSYLAWYQQKPGKAPKLLIYDASNLETGVPSRFSGSGSGTDFTLTISSLQPEDFATYYCQQGYYLWTFGQGTKVEIKRTVAAPSVFIFPPSDEQLKSGTASVVCLLNNFYPREAKVQWKVDNALQSGNSQESVTEQDSKDSTYSLSSTLTLSKADYEKHKVYACEVTHQGLSSPVTKSFNRGEC
light: EVQLVESGGGLVQPGGSLRLSCAASGFSLSTGGVGVGWIRQAPGKGLEWLALIDWADDKYYSPSLKSRLTISRDNSKNTLYLQLNSLRAEDTAVYYCARGGSDTVIGDWFAYWGQGTLVTVSSASTKGPSVFPLAPSSKSTSGGTAALGCLVKDYFPEPVTVSWNSGALTSGVHTFPAVLQSSGLYSLSSVVTVPSSSLGTQTYICNVNHKPSNTKVDKRV[human IgG1 Fc with N390C S400C (EU numbers) not listed]SGGGSEVQLVESGGGLVQPGGSLRLSCAASGYSISSGYYWGWIRQAPGKCLEWIGIIYPSGGGTNYAQKFQGRVTISRDNSKNTLYLQLNSLRAEDTAVYYCARGGGLGFDYWGQGTLVTVSSGGGGSGGGGSGGGGSGGGGSDIQLTQSPSSLSASVGDRVTITCRASQSIPSFLNWYQQKPGKAPKLLIYAASSLQSGVPSRFSGSGSGTDFTLTISSLQPEDFATYYCQHYISWPRQFTFGCGTKVEIKR
notes: Morrison format: anti-CD137 Fab, anti-PDL1 scFv; IgG1 with N390C:S400'C; also called CD137 × PDL1 bispecific antibody, format TYF02
For the molecule B2, the Kd in assay [1] is 0.0024 µM; in assay [2], 0.032 µM.

The Kd is the free concentration of one partner at which half of the binding sites on the other are occupied at equilibrium, for simple one-to-one binding.
